Results filed as inconclusive are left out. Unless noted, calls follow the shape of the full dose curve. More than one record can exist for a structure, and the calls need not agree. For part of its entries the source gives two or more results. They are shown here; other results are not. There may be further records. Values that stand side by side are repeated measurements in other runs, samples, wells, individuals or studies. Marks in square brackets tell the records apart. Letters count within one entry.
Experiments:
[1] = biological target: KiSS-1 receptor (Homo sapiens) (UniProt Q969F8); test: Human kisspeptin (KISS1R) small molecule agonists, calcium flux assay in KISS1R-HEK293 cells (AID 1920064; active = well fitted activation curve with a large enough effect in the repeat runs); settings: KISS1R-HEK293, calcium flux fluorescence, agonist; series mostly up to 76.8 µM
Excerpt: National Center for Advancing Translational Sciences [NCATS]
Division of Preclinical Innovation [DPI]
U.S. Environmental Protection Agency [EPA]
National Institutes of Environmental Health Sciences [NIEHS]
National Toxicology Program [NTP]
U.S. Food and Drug Administration [FDA]
Kisspeptin and its receptor KISS1R play key roles in mammalian reproduction due to their involvement in the onset of puberty and control of the hypothalamic-pituitary-gonadal axis such as regulates GnRH release from the hypothalamus. […] Cell-based KISS1R-HEK293 assay is using HEK293 cells that have been genetically engineered to express the human KISS1R, which activity can be measured by calcium signaling. A compound/drug can activate (agonist) KISS1R that can be monitored by levels of intracellular calcium.
KISS1R-HEK293 cells developed by Codex Corp contain human KISS1R gene, which was stably integrated into HEK 293 cells. The compound activation can be detected by fluorescence intensity via calcium flux assay. […]
KISS1R-Hek293 cells were dispensed at 1500 cells/4uL/well in 1536-well black wall/clear bottom plates using a multidrop dispenser. […] The fluorescence intensity in the plates was measured using FDSS 7000EX kinetic plate reader with a filter set of Ex/Em=480/540 for 3 min at 1 sec intervals. […] Each test compound was measured at 15 concentrations and in triplicates.

[2] = p53 small molecule agonists, cell-based qHTS assay with human liver microsomes (AID 1963577); settings: HCT-116 p53RE-bla with human liver microsomes, ratio, 16 h; series mostly up to 66 µM;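 as to activation: p53 response element beta-lactamase reporter cells with liver microsomes plus NADPH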
In short: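 With metabolic activation: human liver microsomes (0.5 mg/mL final) plus NADPH (0.5 mg/mL final) added alongside compounds to p53RE-bla cells; 16 h 37 C exposure; beta-lactamase read by LiveBLAzer fluorescence.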

[3] = cAMP Responsive Elements (CRE) small molecule agonists, cell-based qHTS assay (AID 1963590); settings: CRE-bla HEK293T, beta-lactamase FRET ratio, 3 h; series mostly up to 42.5 µM
In short: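 HEK 293T cells stably bearing CRE-bla were plated at 2,000 cells per well and rested 18 h. Compounds, positive controls or DMSO were added for 3 h at 37 C. LiveBLAzer B/G substrate was then loaded for 2 h at room temperature.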

[4] = cAMP Responsive Elements (CRE) small molecule antagonists, cell-based qHTS assay (AID 1963591; active = well fitted inhibition curve with a large enough effect in the signal ratio in the repeat runs, not every such curve was filed as active; the % refers to the signal ratio); settings: CRE-bla HEK293T, beta-lactamase FRET ratio; series mostly up to 92.4 µM
In short: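 First, CRE-bla HEK293T cells settled 18 h at 37 C. Next, compound and 0.25 uM final NKH477 were applied for 3 h. Last, LiveBLAzer B/G substrate was loaded for 2 h at room temperature.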
Potency is read from the fitted curve at half-maximal effect.

Sequence of UniProt Q969F8 (Q969F8 whole entry, looked up): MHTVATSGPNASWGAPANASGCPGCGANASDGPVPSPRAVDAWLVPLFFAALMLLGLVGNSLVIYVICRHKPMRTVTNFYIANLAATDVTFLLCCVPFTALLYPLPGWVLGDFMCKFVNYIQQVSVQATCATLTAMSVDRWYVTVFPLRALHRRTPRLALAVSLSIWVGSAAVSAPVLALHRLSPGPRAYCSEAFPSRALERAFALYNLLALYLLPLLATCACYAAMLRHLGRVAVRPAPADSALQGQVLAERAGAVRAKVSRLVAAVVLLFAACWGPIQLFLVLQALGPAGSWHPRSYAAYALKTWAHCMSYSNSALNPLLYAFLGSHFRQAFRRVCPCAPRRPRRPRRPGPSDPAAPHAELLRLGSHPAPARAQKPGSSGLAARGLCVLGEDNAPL

**Q.** With CS(=O)(=O)OCCCCOS(C)(=O)=O as the compound, how does the Potency [1] read?
**A.** The Potency was “active: 8.74 µM [sample A] and inactive [sample B] and inactive [sample C]”.

**Q.** Which Potency [2] does the source give for CCCCOCCOCCSC#N here?
**A.** Its Potency is “active: 34.2 µM [sample A] and inactive [sample B]”.

**Q.** Which Potency [2] does the source give for CCCCCCCCCCCCCC(=O)O here?
**A.** The Potency was “inactive [sample A] and active: 40.8 µM [sample B]”.

**Q.** For C[C@]12C[C@H](O)[C@H]3[C@@H](CCC4=CC(=O)CC[C@@]43C)[C@@H]1CC[C@@H]2C(=O)CO, which Potency [3] is on record?
**A.** The Potency was “active: 13.7 µM [sample A] and inactive [sample B]”.

**Q.** With CCCCCC/C=C/CCCCCCCC(=O)O as the compound, how does the Potency [4] read?
**A.** Its Potency is “inactive [sample A] and active: 11.4 µM [sample B]”.

**Q.** For CC1=C(/C=C/C(C)=C/C=C/C(C)=C/C(=O)Nc2ccc(O)cc2)C(C)(C)CCC1, which Potency [4] is on record?
**A.** Its Potency is “active: 70.3 µM [sample A] and inactive [sample B]”.

— PubChem BioAssay (Tox21)
